Experimental data: PubChem BioAssay AID1347070 (National Center for Advancing Translational Sciences (NCATS), 2019)
Hit rate of the full screen: of about 94,000 compounds, about 20 (0.02%) were called active. The shares of active, inactive and inconclusive entries below differ from those in the screen. The call rests on the fitted dose curve; in most records, active means well fitted activation curve with a large enough effect; inconclusive means small, poorly fitted or top-dose-only effect; inactive means flat fitted curve, though single readings scatter. Potencies of inconclusive entries are left out as doubtful fits.

test: qHTS of alpha-syn Inhibitors: NCGC Sytravon Library Screen; on growth rescue (activation): 0% is about no effect; conditions: S. cerevisiae alpha-synuclein toxicity rescue, BacTiter-Glo growth, 24 h; growth rescue (activation): at 46.1 µM (top of the series)
Method in brief: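 Growth restoration measured by BacTiter-Glo luminescence after 24 hr at 30 deg C; alpha-synuclein yeast, raffinose-pregrown to mid-log, were added at OD600=0.02 in galactose medium onto pinned compounds.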
Potency means the concentration at half of the fitted maximal effect; tags describe the fitted curve by direction and shape.

Compound | Potency | growth rescue (activation)
CCN(CC)S(=O)(=O)c1ccc2c(c1)N(CC(=O)N1CCN(c3cccc(C(F)(F)F)c3)CC1)C(=O)CO2 | inactive | –
Cc1ccccc1OCC(=O)OCc1cc(=O)n2ccsc2n1 | inconclusive [activator, single point] | –
Cc1ccc2oc(C(=O)N(Cc3ccccc3F)C3CCS(=O)(=O)C3)c(C)c2c1 (stereo not drawn) | inactive | –
Cc1ccc(CSCC(=O)N2CCN(c3cc(Cl)ccc3C)CC2)cc1 | inconclusive [activator, single point] | –
COc1cccc(NC(CNS(=O)(=O)c2ccc(C)cc2)c2ccccc2)c1 (stereo not drawn) | inconclusive [activator, single point] | –
COCCNC(=O)/C(C#N)=C/c1cccc(/C=C(\C#N)C(=O)NCCOC)c1 | – | inconclusive: 51.1% [activator]
CCC1CN(C(=O)N2CCC(C(=O)NCCOC)CC2)c2ccccc2O1 (stereo not drawn) | inconclusive [activator, single point] | –
CC(=O)c1ccc(NC(=O)CCc2c(C)nn(-c3ccc4nncn4n3)c2C)cc1 | inactive | –
CCOc1ccc(S(=O)(=O)NCCc2sc(-c3ccc(C)cc3)nc2C)cc1 | inconclusive [activator, single point] | –
CCc1ccccc1N1CC(c2nc3ccccc3n2Cc2cccc(C)c2)CC1=O (stereo not drawn) | inconclusive [activator, single point] | –
Cc1nc2cc(-c3cccc(F)c3)nn2c(C)c1CCC(=O)N1CCN(c2ccc(F)cc2)CC1 | inconclusive [activator, single point] | –
O=C(Nc1cc(F)ccc1F)c1ccc2c(=O)n3c(nc2c1)CCC3 | inactive | –
CCOC(=O)c1c(C)[nH]c(C)c1S(=O)(=O)N(C)CC(=O)Nc1cccc(C(F)(F)F)c1 | inactive | –
CCOc1cc(Br)c(COc2ccc(C)nc2[N+](=O)[O-])cc1OCC | inactive | –
CN(C)CCNC(=O)c1ccc(Cn2c(=O)c3cccn3c3cccnc32)cc1 | inconclusive [activator, single point] | –
O=C1CN(C(=O)Cc2ccccc2)C(c2ccc(F)cc2)c2cc(Br)ccc2N1 (stereo not drawn) | inconclusive [activator, full curve] | –
CCc1ccccc1NC(=O)CCCn1c(=O)c2cccn2c2ccccc21 | inactive | –
CCc1ccc(CN(Cc2ccco2)C(=O)c2cc(-c3ccc(C)c(F)c3)on2)cc1 | inactive | –
CCCC(=O)OC1=C(C(C)=O)N(Cc2ccccc2)S(=O)(=O)c2ccccc21 | inconclusive [activator, single point] | –
Cc1cc(S(=O)(=O)NCCc2csc(-c3cccc(F)c3)n2)ccc1F | inconclusive [activator, single point] | –
O=C1CN(C(=O)c2c(F)cccc2Cl)C(c2ccc(F)cc2)c2cc(Br)ccc2N1 (stereo not drawn) | inconclusive [activator, single point] | –
CC(C)c1ccc(C(=O)CC2(O)C(=O)N(CCc3ccccc3)c3ccc(Cl)cc32)cc1 (stereo not drawn) | inconclusive [activator, single point] | –

Compound | Potency | growth rescue (activation)
CCOC(=O)c1ccc(NC2(c3ccccc3)C(=O)c3ccccc3C2=O)cc1 | inconclusive [activator, single point] | –
CCOC(=O)c1cc(-c2ccccc2)n(CCC(=O)NCCc2cccc(C)c2)c1C | inconclusive [activator, single point] | –
COc1ccc(CCNC(=O)CCc2c(C)c3cc4c(C)coc4c(C)c3oc2=O)cc1OC | inactive | –
O=C(CSc1nccn1Cc1ccc(F)cc1)Nc1nc2ccccc2s1 | inconclusive [activator, single point] | –
COc1ccc2c(c1)C(=O)N(c1ccc(C)cc1C)C(=O)C2(C)C | – | inconclusive: 70.7% [activator]
O=C(CSc1nccn1Cc1ccc(Cl)cc1)Nc1nc2ccccc2s1 | inconclusive [activator, single point] | –
CCOc1ccccc1C1C(C(=O)Nc2ccccc2)=C(C)Nc2nc(SCC(=O)c3ccc(C)cc3)nn21 (stereo not drawn) | inactive | –
CCC(=O)OC1=C(C(C)=O)N(Cc2ccccc2)S(=O)(=O)c2ccccc21 | inconclusive [activator, single point] | –
CCc1cccc(NS(=O)(=O)c2ccc3c(c2)CC(C)N3C(=O)C2CC2)c1 (stereo not drawn) | inconclusive [activator, single point] | –
COc1ccccc1C(=O)NCc1nc2cccnc2n1Cc1ccc(F)cc1 | inactive | –
Cc1[nH]c2ccccc2c1Cc1nnc(SCc2ccccc2)o1 | – | inconclusive: 101% [activator]
Cc1cnc(C(=O)NNC(=O)c2ccc(Br)cc2)cn1 | – | inconclusive: 31% [activator]
COc1ccc(Cc2nc3ccc(C(=O)NCc4ccccc4Cl)cc3o2)cc1 | inconclusive [activator, single point] | –
O=C(/C=C/c1ccccc1Cl)Nc1nc(-c2cccs2)ns1 | inactive | –
Cc1cccc(N2CCn3c2nc2c3c(=O)n(C/C=C/c3ccccc3)c(=O)n2C)c1 | inactive | –
Cc1ccc(-c2onc(C)c2C)cc1S(=O)(=O)NC1CCCCC1 | inconclusive [activator, single point] | –
Cn1cnc2c(=O)oc3ccc(S(=O)(=O)N4CCN(c5cccc(Cl)c5)CC4)cc3c21 | inactive | –
CCOC(=O)CSc1nc2ccc(NC(=O)c3ccccc3)cc2s1 | inconclusive [activator, single point] | –
Cc1ccc(C)c(N2CCN(C(=O)c3ccc4[nH]c(C)c(C)c4c3)CC2)c1 | inconclusive [activator, single point] | –
Cc1cccc(-c2nc(CSCC(=O)N3CCN(c4cccc(C)c4C)CC3)c(C)o2)c1 | inconclusive [activator, single point] | –
COc1ccc(-c2nc(Cn3c(SCc4ccc(F)cc4)nc4cccnc43)c(C)o2)cc1 | inconclusive [activator, single point] | –
